The campaign covered roughly 220,000 compounds. About 5,700 (2.6%) were called active. A call without a number means that no potency is given here. The shares of active, inactive and inconclusive entries below differ from those in the screen. Calls follow the shape of the dose curve; as a rule, active = well fitted inhibition curve with a large enough effect; inconclusive = small, poorly fitted or top-dose-only effect; inactive = no such curve, though single readings can be large or run the other way. Where the call is inconclusive, the potency comes from a doubtful curve fit.
molecular target: Lysine-specific demethylase 5B (Homo sapiens) (UniProt Q9UGL1); assay: Primary screen for KDM5B Histone Demethylases FDH-coupled qHTS; details: FDH-coupled NADH fluorescence (FDH is formaldehyde dehydrogenase); series mostly up to 57.7 µM; also: nearly all actives have a fitted effect of over 70% in size
Chain of UniProt Q9UGL1 (Q9UGL1 whole entry, looked up): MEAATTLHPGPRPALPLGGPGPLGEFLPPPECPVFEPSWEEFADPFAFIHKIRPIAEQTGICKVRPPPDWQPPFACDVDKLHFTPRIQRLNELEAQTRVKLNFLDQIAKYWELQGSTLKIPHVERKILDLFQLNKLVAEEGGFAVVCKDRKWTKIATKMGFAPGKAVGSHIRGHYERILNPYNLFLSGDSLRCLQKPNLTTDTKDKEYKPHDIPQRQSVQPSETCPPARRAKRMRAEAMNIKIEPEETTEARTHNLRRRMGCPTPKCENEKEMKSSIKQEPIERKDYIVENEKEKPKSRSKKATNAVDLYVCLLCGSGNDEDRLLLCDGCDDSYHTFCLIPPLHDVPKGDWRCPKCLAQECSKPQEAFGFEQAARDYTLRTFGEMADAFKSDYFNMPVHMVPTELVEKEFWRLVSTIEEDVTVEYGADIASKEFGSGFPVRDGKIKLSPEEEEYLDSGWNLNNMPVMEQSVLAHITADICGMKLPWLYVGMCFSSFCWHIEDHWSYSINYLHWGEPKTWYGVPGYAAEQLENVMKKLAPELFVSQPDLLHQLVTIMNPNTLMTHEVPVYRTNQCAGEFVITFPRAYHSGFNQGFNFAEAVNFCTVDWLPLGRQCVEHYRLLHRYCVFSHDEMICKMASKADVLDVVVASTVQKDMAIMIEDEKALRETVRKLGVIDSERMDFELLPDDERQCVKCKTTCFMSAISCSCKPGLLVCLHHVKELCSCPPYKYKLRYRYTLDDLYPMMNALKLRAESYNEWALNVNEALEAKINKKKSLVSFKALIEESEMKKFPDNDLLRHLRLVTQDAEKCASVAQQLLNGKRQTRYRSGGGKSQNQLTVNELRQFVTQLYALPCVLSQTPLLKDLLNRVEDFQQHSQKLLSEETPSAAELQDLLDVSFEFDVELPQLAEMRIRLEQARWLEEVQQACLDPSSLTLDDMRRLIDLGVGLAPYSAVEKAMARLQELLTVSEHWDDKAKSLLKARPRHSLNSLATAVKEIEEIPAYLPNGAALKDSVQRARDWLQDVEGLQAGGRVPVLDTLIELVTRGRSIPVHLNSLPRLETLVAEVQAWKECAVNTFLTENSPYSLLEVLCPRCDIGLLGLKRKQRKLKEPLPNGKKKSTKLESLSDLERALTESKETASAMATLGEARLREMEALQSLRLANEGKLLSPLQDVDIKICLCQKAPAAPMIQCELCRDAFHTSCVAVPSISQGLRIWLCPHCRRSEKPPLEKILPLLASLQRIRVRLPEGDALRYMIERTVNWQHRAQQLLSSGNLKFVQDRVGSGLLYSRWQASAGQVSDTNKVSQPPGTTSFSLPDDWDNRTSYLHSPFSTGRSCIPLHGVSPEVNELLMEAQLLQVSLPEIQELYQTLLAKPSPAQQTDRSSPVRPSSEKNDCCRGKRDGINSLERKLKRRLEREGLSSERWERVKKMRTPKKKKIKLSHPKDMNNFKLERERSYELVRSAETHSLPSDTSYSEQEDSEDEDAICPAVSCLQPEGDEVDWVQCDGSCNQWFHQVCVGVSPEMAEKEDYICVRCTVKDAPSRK
Outline: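 Here, H3K4me3 peptide (12.5 µM in substrate mix) is demethylated by KDM5BΔAP, 200 nM final, after 10 min compound exposure. Formaldehyde product is coupled through FDH (0.25 U/mL in mix) to NADH fluorescence; 30-min ΔRFU feeds dose-response curves.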
Potency is read from the fitted curve at half-maximal effect; tags tell the direction and shape of the fitted curve.

SMILES | Potency
Cc1ccc(NC(=O)c2ncoc2-c2ccco2)cc1Cl | inconclusive: 25.1 µM [inhibitor, partial curve, poor fit]
O=C(Nc1cnc(-c2cccc(Cl)c2)nc1)c1ccc(F)cc1F | inactive
O=C(CCC[C@@H]1[C@H]2CCCN3CCC[C@@H](CN1Cc1ccccc1)[C@@H]23)Nc1cccnc1 | inactive
COc1cc2c(cc1OC)C(C[C@H]1CN(C(=O)Cc3cccs3)CC[C@H]1CC(=O)O)=NCC2 | active: 28.2 µM
O=c1cc(-c2ccccc2)nc2cc(-c3ccc(Br)cc3)[nH]n12 | inconclusive: 28.2 µM [inhibitor, partial curve, poor fit]
CCOc1ccc(-c2nnc(SCC(=O)c3ccccc3)n2-c2ccccc2)cc1 | inactive
NS(=O)(=O)c1ccc(N/N=C/c2c[nH]c3ccc(Br)cc23)c([N+](=O)[O-])c1 | inactive
O=C(NCc1ccc(-c2cccc(Cl)c2)o1)[C@H]1CCC[C@@H](O)C1 | inconclusive: 35.5 µM [inhibitor, partial curve, poor fit]
O=C(NCC1(COc2ccccc2)C[C@@H](O)[C@@H](O)C1)C1CCCC1 (stereo not given in full) | inconclusive: 31.6 µM [inhibitor, partial curve, poor fit]
COc1ccc(C(=O)Nc2ccc3oc(-c4ccc5ccccc5c4)nc3c2)cc1Br | inconclusive: 31.6 µM [inhibitor, partial curve, poor fit]
COCCOC1CCN(C(=O)c2ccc3oc(-c4cccc(F)c4)nc3c2)CC1 | inconclusive: 25.1 µM [inhibitor, single point]
COc1ccc(S(=O)(=O)N2CCN(Cc3ccc(C(F)(F)F)cc3)CC2)cc1OC | inactive
CC(=O)Nc1ccc(NC(=O)c2cc(=O)c3ccc(C)cc3o2)cc1 | inconclusive: 22.4 µM [inhibitor, single point]
Cc1ccc(S(=O)(=O)N(C)Cc2ccccc2C(F)(F)F)cc1 | inactive
CC(Nc1nc(-c2ccccc2F)nc2ccccc12)c1ccccc1 (stereo not given) | inactive
CCN(CC)CCNc1nc(C)c2c(c1C#N)CCCC2 | inactive
O=C(c1cccc2[nH]ccc12)N1CCCC(n2cc(-c3nc(C4CC4)no3)nn2)C1 (stereo not given) | inconclusive: 25.1 µM [inhibitor, partial curve, poor fit]
COc1cccc(CNC(=O)c2ccc(N3CCCC3)c(NC(=O)Nc3ccccc3F)c2)c1 | inactive
COc1ccccc1-c1nnc([C@H]2CCN(Cc3ccccc3O)C2)o1 | inconclusive: 25.1 µM [inhibitor, single point]
CC(C)C(NC/C=C/c1ccccc1)C(=O)O (stereo not given) | inactive

From PubChem BioAssay AID1347165 (National Center for Advancing Translational Sciences (NCATS), 2019)
